# Among all 390,000 compounds or so, about 930 (0.24%) were called active. This list was built around the results that the source calls inconclusive (neither active nor inactive); the mix of calls is not that of the screen. The call rests on the fitted dose curve; in most records, active means well fitted activation curve with a large enough effect; inconclusive means small, poorly fitted or top-dose-only effect; inactive means no such curve, though single readings can be large or run the other way. A potency beside an inconclusive call is a rough fit, not a confirmed value.
# Assay: qHTS for Suppressors of FUS Proteinopathy: Primary screen using FUS-linked yeast assay; further: nearly all actives have a fitted effect of over 55% in size;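 on growth rescue (activation): plate controls were DMSO vehicle for no effect and reference control for full effect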
# Details: S. cerevisiae FUS-expressing, OD600, 24 h; Potency: growth rescue; growth rescue (activation): at 76.6 µM (top of the series)
# Summary of the method: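 Absorbance at 600 nm, taken 24hr after compound addition, measured rescue of FUS-yeast growth at 30C. Induction used 2% galactose with seeding at OD 0.005. Controls: CP55940 from 92uM final, DMSO only.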
# Potency means the concentration at half of the fitted maximal effect; tags describe the fitted curve by direction and shape.
Structure (SMILES),Potency,growth rescue (activation)
COc1ccc(C(=O)C[n+]2cccc(Br)c2)cc1,"inconclusive: 50.1 µM [activator, single point]",–
Cc1cc(C(=O)NCCCn2ccnc2)sc1-c1ccccc1,"inconclusive: 44.7 µM [activator, partial curve, poor fit]",–
COc1ccc(NC(=O)CCc2nnc3ccc(NCc4ccc5c(c4)OCO5)nn23)cc1,"inconclusive: 8.91 µM [activator, partial curve, poor fit]",–
O=C(NC1CCCCN(Cc2cccc(Cl)c2)C1=O)c1ccc(-c2ccccc2)cc1 (configuration not stated),"inconclusive: 8.91 µM [activator, partial curve]",–
CCc1ccc(NC(=O)CSc2ncc(S(=O)(=O)c3cc(C)ccc3C)c(=O)[nH]2)cc1,–,inactive: -6.92%
CCCCCNC(=O)C(c1cc2ccccc2o1)n1c(=O)c(-c2ccco2)nc2ccccc21 (configuration not stated),"inconclusive: 44.7 µM [activator, single point]",–
CCCCn1c(N)c(N(CCOC)C(=O)c2cc3c(s2)CCC(C)C3)c(=O)[nH]c1=O (configuration not stated),"inconclusive: 31.6 µM [activator, partial curve, poor fit]",–
CCOc1ccc(C2CC(c3ccccc3C)n3ncnc3N2)cc1 (configuration not stated),"inconclusive: 3.16 µM [activator, full curve]",–
C[C@H]1COC(=O)[C@H](Cc2ccc(F)cc2)C/C=C\C[C@H](CC(=O)N(CCO)Cc2ccccc2)C(=O)N1,"inconclusive: 20 µM [activator, partial curve]",–
Cc1ccc2onc(CC(=O)N3CCN(c4ccccc4)CC3)c2c1,–,inactive: 31.1%
CCn1c2ccccc2c2cc(C=Nn3c(-c4ccccn4)n[nH]c3=S)ccc21,–,inactive: 13.7%
CC[C@]12C(=O)N(C)C[C@H]([C@@H]3C(=O)N(C)C(=O)[C@@H]31)N2C(=O)c1ccc(Cl)c(Cl)c1,–,inactive: -5.95%
O=C1C(=O)c2c(ccc3ccccc23)-c2ccccc21,–,inactive: 0.0281%
CC(C)NC(=O)c1cc(C2CCCCN2C(=O)c2ccc(C(C)C)cc2)on1 (configuration not stated),"inconclusive: 22.4 µM [activator, single point]",–
O=C(c1ccccc1)[C@@H]1[C@@H](C(=O)c2ccc(F)cc2)[C@@]2(C(=O)Nc3ccccc32)[C@H]2c3ccccc3C=CN12,"inconclusive: 15.8 µM [activator, partial curve, poor fit]",–
CCCC(=O)Nc1ccc2nc(SCC(=O)Nc3ccc(N4CCOCC4)c(Cl)c3)sc2c1,"inconclusive: 25.1 µM [activator, single point]",–
CNC(=O)c1c(NC(=O)c2ccc(S(=O)(=O)N(C)c3ccccc3)cc2)sc2c1CCN(C(C)C)C2,"inconclusive: 7.94 µM [activator, partial curve]",–
O=C(NCCc1ccccc1)c1ccc(CS(=O)(=O)c2ccc(Cl)cc2)o1,inactive,–
N#Cc1c(NC(=S)NC(=O)Cc2cccs2)sc2c1CCCCC2,"inconclusive: 7.94 µM [activator, partial curve, poor fit]",–

Structure (SMILES),Potency,growth rescue (activation)
COc1ccc(NS(=O)(=O)c2ccc(S(=O)(=O)N3CCCC3)cc2)cc1Cl,"inconclusive: 50.1 µM [activator, single point]",–
COC(=O)c1ccc2c(=O)n(CCCCCC(=O)N3CCN(c4ccc(Cl)cc4)CC3)c(=O)[nH]c2c1,"inconclusive: 28.2 µM [activator, single point]",–
CCOC(=O)c1ccc(NC(=O)c2cc3c(s2)CCC3)cc1,–,inactive: -4.1%
Cc1cccc(C(=O)OCC(=O)c2c(N)n(CC(C)C)c(=O)n(C)c2=O)c1O,–,inactive: 14.4%
Cc1ccc(NC(=O)Cn2ccnc2)cc1C,"inconclusive: 2.82 µM [activator, full curve, poor fit]",–
Cc1ccc(NS(=O)(=O)c2cccc(C(=O)NCC(c3ccc(F)cc3)N3CCOCC3)c2)cc1 (configuration not stated),"inconclusive: 50.1 µM [activator, partial curve, poor fit]",–
CC(C)(C)C(=O)Nc1cccc(-c2nnc(-c3cccc(NC(=O)C(C)(C)C)c3)o2)c1,"inconclusive: 35.5 µM [activator, single point]",–
C=CCn1c(=O)c2c(nc3n2CCCN3Cc2ccccc2)n(C)c1=O,"inconclusive: 10 µM [activator, partial curve, poor fit]",–
CCOc1ccccc1CNC(=O)c1oc2ccc3c(c2c1C)C(=O)CC(C)(C)O3,"inconclusive: 22.4 µM [activator, single point]",–
COc1cccc(NC(=O)CN(C)C(=O)c2ccc(-c3ccc(Cl)cc3)o2)c1,"inconclusive: 31.6 µM [activator, single point]",–
CC(C)(C)C(=O)Nc1cc(NC(=O)C(C)(C)C)cc(C(=O)Nc2cc(C(=O)O)cc(C(=O)O)c2)c1,"inconclusive: 11.2 µM [activator, partial curve, poor fit]",–
CN(Cc1ccccc1)C(=O)c1ccc(NC(=O)Cc2ccc(NC(=O)C3CCN(C(=O)CCc4ccccc4)CC3)cc2)cc1,"inconclusive: 17.8 µM [activator, partial curve, poor fit]",–
C/C=C(/C)C(=O)Nc1cccc(C2=NOC3(C2)C[C@@H](C(N)=O)N(C(=O)CC(c2ccccc2)c2ccccc2)C3)c1 (some centres not stated),"inconclusive: 22.4 µM [activator, single point]",–
CC(=O)c1sc(NC(=O)C2CC(=O)N(Cc3ccccc3)C2)nc1-c1ccccc1 (configuration not stated),"inconclusive: 31.6 µM [activator, single point]",–
COc1ccc(NC(=O)C(C2CC2)n2c(=O)c(-c3cc4ccccc4[nH]3)nc3ccccc32)cc1 (configuration not stated),"inconclusive: 11.2 µM [activator, partial curve]",–
O=C(Cc1ccc(-n2c(=O)c3ccccc3n(Cc3ccccc3Cl)c2=O)cc1)NCC1CCCO1 (configuration not stated),–,inactive: 12.9%
O=C(CN1C(=O)NC(c2ccccc2)(c2ccccc2)C1=O)N1CCN(c2ccccc2F)CC1,"inconclusive: 15.8 µM [activator, partial curve, poor fit]",–
COc1ccc(/C=C2/CN(Cc3ccc(OC)cc3OC)C3=NC(c4ccc5ccccc5c4)CC(=O)N32)cc1 (configuration not stated),"inconclusive: 20 µM [activator, partial curve, poor fit]",–

# — PubChem BioAssay AID1347120 (National Center for Advancing Translational Sciences (NCATS), 2019)
